Reference: the supplement of paper PMC4967469

Columns and labels:
Assay in all cases: Viability of human cancer cell lines after 72 h of drug (GDSC screen)
[1] = compound: CC(C)N(CCCNC(=O)Nc1ccc(C(C)(C)C)cc1)C[C@H]1O[C@@H](n2cc(Br)c3c(N)ncnc32)[C@H](O)[C@@H]1O [SGC0946]; settings: top dose 0.5 µM; top dose inferred
Protocol: (§1)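 Human cancer cell lines in 384-well plates, medium with 10% serum, drug for 72 h over a 256-fold dose range (nine 2-fold or five 4-fold steps up to the top dose). Adherent lines were fixed and stained with the nucleic acid dye Syto60, suspension lines read with resazurin; signal relative to control wells, capped at 0 and 100%. One two-parameter sigmoid per drug and line, fitted in a mixed model over all curves with the slope shared within a line.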

[2] = compound: Nc1cccc2c1CN(C1CCC(=O)NC1=O)C2=O [Lenalidomide]; settings: top dose 5 µM; top dose inferred
Protocol: as §1

[3] = compound: CCC/C=C/C=C/C(=O)O[C@H]1/C(=C/C(=O)OC)C[C@H]2C[C@H]([C@@H](C)O)OC(=O)C[C@H](O)C[C@@H]3C[C@H](OC(C)=O)C(C)(C)[C@](O)(C[C@@H]4C/C(=C/C(=O)OC)C[C@H](/C=C/C(C)(C)[C@]1(O)O2)O4)O3 [Bryostatin 1]; settings: top dose 0.008 µM; top dose inferred
Protocol: as §1

[4] = compound: COc1ccc(COc2ccc(Cc3cnc(N)nc3N)cc2OC)cc1 [GW-2580]; settings: top dose 20 µM; top dose inferred
Protocol: as §1

| Cell Line | AUC [1] | IC50 [1] [µM] | AUC [2] | IC50 [2] [µM] | AUC [3] | IC50 [3] [µM] | AUC [4] | IC50 [4] [µM] |
| --- | --- | --- | --- | --- | --- | --- | --- | --- |
| NCI-H1666 (lung adenocarcinoma, semi-adherent) | 0.985 | > 0.5 | 0.983 | > 5 | 0.981 | > 0.008 | 0.983 | > 20 |
| NCI-H1688 (small cell lung carcinoma, adherent) | 0.984 | > 0.5 | 0.987 | > 5 | 0.98 | > 0.008 | 0.983 | > 20 |
| NCI-H1693 (lung adenocarcinoma, adherent) | 0.973 | > 0.5 | 0.925 | > 5 | 0.924 | > 0.008 | 0.971 | > 20 |
| NCI-H1703 (lung adenocarcinoma, adherent) | 0.975 | > 0.5 | 0.979 | > 5 | 0.98 | > 0.008 | 0.965 | > 20 |
| NCI-H1755 (lung adenocarcinoma, adherent) | 0.977 | > 0.5 | 0.977 | > 5 | 0.966 | > 0.008 | 0.848 | 18.6 |
| NCI-H1781 (lung adenocarcinoma, adherent) | 0.988 | > 0.5 | 0.989 | > 5 | 0.985 | > 0.008 | 0.989 | > 20 |
| NCI-H1792 (lung adenocarcinoma, adherent) | 0.986 | > 0.5 | 0.977 | > 5 | 0.965 | > 0.008 | 0.983 | > 20 |
| NCI-H1944 (lung adenocarcinoma, adherent) | 0.973 | > 0.5 | 0.985 | > 5 | 0.937 | > 0.008 | 0.982 | > 20 |
| NCI-H1993 (lung adenocarcinoma, adherent) | 0.976 | > 0.5 | 0.94 | > 5 | 0.945 | > 0.008 | 0.983 | > 20 |
| NCI-H2009 (lung adenocarcinoma, adherent) | 0.985 | > 0.5 | 0.978 | > 5 | 0.96 | > 0.008 | 0.982 | > 20 |
| NCI-H2023 (lung adenocarcinoma, adherent) | 0.98 | > 0.5 | 0.976 | > 5 | 0.98 | > 0.008 | 0.983 | > 20 |
| NCI-H2029 (small cell lung carcinoma, adherent) | 0.983 | > 0.5 | 0.977 | > 5 | 0.992 | > 0.008 | 0.979 | > 20 |
| NCI-H2081 (small cell lung carcinoma, suspension) | 0.988 | > 0.5 | 0.973 | > 5 | 0.989 | > 0.008 | 0.975 | > 20 |
| NCI-H2087 (lung adenocarcinoma, semi-adherent) | 0.979 | > 0.5 | 0.983 | > 5 | 0.986 | > 0.008 | 0.973 | > 20 |
| NCI-H2110 (non-small cell lung carcinoma, adherent) | 0.985 | > 0.5 | 0.978 | > 5 | 0.961 | > 0.008 | 0.986 | > 20 |
| NCI-H2122 (lung adenocarcinoma, adherent) | 0.988 | > 0.5 | 0.978 | > 5 | 0.902 | > 0.008 | 0.989 | > 20 |
| NCI-H2141 (small cell lung carcinoma, suspension) | 0.99 | > 0.5 | 0.991 | > 5 | 0.989 | > 0.008 | 0.916 | > 20 |
| NCI-H2227 (small cell lung carcinoma, semi-adherent) | 0.983 | > 0.5 | 0.986 | > 5 | 0.983 | > 0.008 | 0.984 | > 20 |
| NCI-H2291 (lung adenocarcinoma, adherent) | 0.887 | > 0.5 | 0.982 | > 5 | 0.983 | > 0.008 | 0.984 | > 20 |
| NCI-H2342 (lung adenocarcinoma, adherent) | 0.984 | > 0.5 | 0.961 | > 5 | 0.923 | > 0.008 | 0.948 | > 20 |
| NCI-H2347 (lung adenocarcinoma, adherent) | 0.971 | > 0.5 | 0.983 | > 5 | 0.976 | > 0.008 | 0.98 | > 20 |
| NCI-H2405 (lung adenocarcinoma, adherent) | 0.949 | > 0.5 | 0.973 | > 5 | 0.979 | > 0.008 | 0.975 | > 20 |
| NCI-H2444 (non-small cell lung carcinoma, adherent) | 0.987 | > 0.5 | 0.987 | > 5 | 0.988 | > 0.008 | 0.98 | > 20 |
| NCI-H2452 (mesothelioma, adherent) | 0.982 | > 0.5 | 0.984 | > 5 | 0.948 | > 0.008 | 0.97 | > 20 |
| NCI-H3122 (lung adenocarcinoma, adherent) | 0.985 | > 0.5 | 0.987 | > 5 | 0.981 | > 0.008 | 0.986 | > 20 |
| NCI-SNU-1 (stomach, suspension) | 0.984 | > 0.5 | 0.986 | > 5 | 0.986 | > 0.008 | 0.98 | > 20 |
| NCI-SNU-16 (stomach, suspension) | 0.985 | > 0.5 | 0.985 | > 5 | 0.991 | > 0.008 | 0.986 | > 20 |
| NKM-1 (acute myeloid leukaemia, suspension) | 0.943 | > 0.5 | 0.94 | > 5 | 0.984 | > 0.008 | 0.899 | > 20 |

Lines with a small IC50 respond at low doses; where the fit passes the top or lowest dose, that dose stands as a limit. The AUC spans the tested range (256-fold, ending at the top dose) of the same fit; values near 1 show little effect. The top dose, if marked as inferred, comes from the curve model; the source does not state it.
